From the supplement of paper PMC9334596 come the findings set out here.

For this assay, the system named is mPer2Luc MEF. Put plainly: PER2::LUC luminescence relative to vehicle control (fold of vehicle); higher = higher PER2::LUC reporter signal. The following applies: 10 µM. A digest of the protocol:
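Mouse embryonic fibroblasts carrying the mPer2Luc reporter were seeded at ~3000 cells per well in 384-well plates, 48 h before compounds from commercial libraries were added at 10 μM. Cells were grown in DMEM with 10% FBS at 37 °C and 5% CO2. Luminescence was read with the ONE-Glo luciferase assay system 24 h and 30 h after treatment, followed by an alamarBlue viability assay. The value is PER2::LUC luminescence as fold of vehicle control.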

Structures are written as SMILES. “And” between values parts separate entries of the source, which are not always exact repeats. Equal values may be shown once. Whole data set: some 5,300 compounds, median “PER2::LUC luminescence relative to vehicle control” near 0.96, cut for the highest 2% near 1.3. The list shows a part of the results.

Regarding `CC[C@@H](C(N)=O)N1CCCC1=O`, the “PER2::LUC luminescence” value (time after treatment 24 h) worked out at 1.18 and the “PER2::LUC luminescence” value (time after treatment 30 h) was found to be 0.943.

Turning to `NCC(O)c1cc(O)c(O)cc1F` (centres undefined), the “PER2::LUC luminescence” value (time after treatment 24 h) was 1.03 and the “PER2::LUC luminescence” value (time after treatment 30 h) came out at 0.878.

On to `C[N+]1(C)CCOC(O)(c2ccc(-c3ccc(C4(O)C[N+](C)(C)CCO4)cc3)cc2)C1` (centres undefined), for which the “PER2::LUC luminescence” value by setting is: (time after treatment 24 h) 0.878; (time after treatment 30 h) 1.1.

For `Nc1ccncc1`, the “PER2::LUC luminescence” value is, setting by setting: (time after treatment 24 h) 1.06 and 1.04; (time after treatment 30 h) 1.05 and 1.02.

As to `COc1ccc(-n2nc(C(F)(F)F)cc2-c2ccc(Cl)cc2)cc1`, the “PER2::LUC luminescence” value was found to be 1.09 (time after treatment 24 h) and 1.2 (time after treatment 30 h).

For `CN(C)Cc1c[nH]c2ccccc12`, the “PER2::LUC luminescence” value reads like this: (time after treatment 24 h) 0.905; (time after treatment 30 h) 1.02.

`CCCCn1cc(C(=O)c2cccc3ccccc23)c2ccccc21`: the “PER2::LUC luminescence” value runs as follows: (time after treatment 24 h) 0.856; (time after treatment 30 h) 0.919.

In the case of `CC[C@H](C)[C@H]1O[C@]2(C=C[C@@H]1C)C[C@@H]1C[C@@H](C/C=C(\C)[C@@H](O[C@H]3C[C@H](OC)[C@@H](O[C@H]4C[C@H](OC)[C@@H](O)[C@H](C)O4)[C@H](C)O3)[C@@H](C)/C=C/C=C3\CO[C@@H]4[C@H](O)C(C)=C[C@@H](C(=O)O1)[C@]34O)O2.CO[C@H]1C[C@H](O[C@H]2[C@H](C)O[C@@H](O[C@@H]3/C(C)=C/C[C@@H]4C[C@@H](C[C@]5(C=C[C@H](C)[C@@H](C(C)C)O5)O4)OC(=O)[C@@H]4C=C(C)[C@@H](O)[C@H]5OC/C(=C\C=C\[C@@H]3C)[C@]54O)C[C@@H]2OC)O[C@@H](C)[C@@H]1O`, the “PER2::LUC luminescence” value by setting is: (time after treatment 24 h) 0.781; (time after treatment 30 h) 0.858.

`CO[C@H]1CC=C2CCN3CCC4=C(CC(=O)OC4)[C@]23C1`: the “PER2::LUC luminescence” value amounted to 1.06 (time after treatment 24 h) and 0.84 (time after treatment 30 h).

On to `C[C@]12CCC(=O)C=C1CC[C@@H]1[C@@H]2C(=O)C[C@]2(C)C(=O)CC[C@@H]12`, for which the “PER2::LUC luminescence” value is 0.947 (time after treatment 24 h) and 0.92 (time after treatment 30 h).

For `COc1cc(C=C(C#N)C#N)cc(O)c1O`, the “PER2::LUC luminescence” value by setting is: (time after treatment 24 h) 0.857; (time after treatment 30 h) 0.943.

For the compound `CC(C)[C@@]1(O)[C@@H](OC(=O)c2ccc[nH]2)[C@@]2(O)[C@@]3(C)C[C@]4(O)O[C@@]5([C@H](O)[C@@H](C)CC[C@]35O)[C@@]2(O)[C@@]14C`, the “PER2::LUC luminescence” value is, setting by setting: (time after treatment 24 h) 0.918; (time after treatment 30 h) 0.947.

Consider `C[C@]12CCC(=O)C[C@@H]1CC[C@@H]1[C@@H]2CC[C@@]2(C)[C@H]1CC[C@]2(C)O`, for which the “PER2::LUC luminescence” value was determined as 0.841 (time after treatment 24 h) and 0.841 (time after treatment 30 h).

Turning to `NC(=O)CN1CC(O)CC1=O` (centres undefined), the “PER2::LUC luminescence” value worked out at 0.992 (time after treatment 24 h) and 0.948 (time after treatment 30 h).

As to `CC[C@H](C)[C@@H]([C@@H](CC(=O)N1CCC[C@H]1[C@H](OC)[C@@H](C)C(=O)N[C@H](C)[C@@H](O)c1ccccc1)OC)N(C)C(=O)[C@@H](NC(=O)[C@@H](NC)C(C)C)C(C)C`, the “PER2::LUC luminescence” value is, setting by setting: (time after treatment 24 h) 0.378; (time after treatment 30 h) 0.38.

For the compound `C[N+](C)(C)CC#CCN1CCCC1=O`, the “PER2::LUC luminescence” value (time after treatment 24 h) was 0.927 and the “PER2::LUC luminescence” value (time after treatment 30 h) worked out at 1.11.

Turning to `NC(=O)c1ccc(OCC(O)CN2CC=C(c3ccc(F)cc3)CC2)cc1` (centres undefined), the “PER2::LUC luminescence” value runs as follows: (time after treatment 24 h) 1.21; (time after treatment 30 h) 1.19.

As to `CC(C)=CC1C(C(=O)OCc2cccc(Oc3ccccc3)c2)C1(C)C` (centres undefined), the “PER2::LUC luminescence” value was determined as 0.952 (time after treatment 24 h) and 0.891 (time after treatment 30 h).

Regarding `Clc1ccc([C@]23CNC[C@H]2C3)cc1Cl`, the “PER2::LUC luminescence” value runs as follows: (time after treatment 24 h) 0.901; (time after treatment 30 h) 0.838.

Consider `Cc1ncc2n1-c1ccc(Cl)cc1C(c1ccccc1F)=NC2`, for which the “PER2::LUC luminescence” value came to 0.948 (time after treatment 24 h) and 0.97 (time after treatment 30 h).

Regarding `CC1(C)C(=O)C=C[C@]2(C)[C@H]3CC[C@@]4(C)[C@H](c5ccoc5)OC(=O)[C@H]5O[C@]54[C@]3(C)[C@H](O)C[C@@H]12`, the “PER2::LUC luminescence” value was found to be 0.639 (time after treatment 24 h) and 0.941 (time after treatment 30 h).

In the case of `COc1ccc(CNC(=O)/C=C/c2ccc3[nH]cc(CCN(C)C)c3c2)cc1`, the “PER2::LUC luminescence” value was found to be 0.993 (time after treatment 24 h) and 1.09 (time after treatment 30 h).

For the compound `C[CH2][Hg][S]c1ccccc1C(=O)[O-].[Na+]`, the “PER2::LUC luminescence” value (time after treatment 24 h) was found to be 0.678 and the “PER2::LUC luminescence” value (time after treatment 30 h) was 0.66.

Take `NC(=O)C[S@@+]([O-])C(c1ccccc1)c1ccccc1`: the “PER2::LUC luminescence” value is 0.864 (time after treatment 24 h) and 0.961 (time after treatment 30 h).

`CC(N)Cc1c[nH]c2ccc(OCc3cccs3)cc12` (centres undefined): the “PER2::LUC luminescence” value runs as follows: (time after treatment 24 h) 0.886 and 0.602; (time after treatment 30 h) 0.834 and 0.602.

As for `CN1CCC(c2c[nH]c3ccc(O)cc23)CC1`, the “PER2::LUC luminescence” value reads like this: (time after treatment 24 h) 0.846; (time after treatment 30 h) 0.853.

Take `CC(C)[C@@]1(NC(=O)[C@@H]2C[C@@H]3c4cccc5[nH]cc(c45)C[C@H]3N(C)C2)O[C@@]2(O)[C@@H]3CCCN3C(=O)[C@H](Cc3ccccc3)N2C1=O`: the “PER2::LUC luminescence” value by setting is: (time after treatment 24 h) 0.916 and 0.676; (time after treatment 30 h) 0.977 and 0.623.

For the compound `CC(=O)C1=C(O)[C@@H]2[C@H]3c4c[nH]c5cccc(c45)C[C@H]3C(C)(C)N2C1=O`, the “PER2::LUC luminescence” value amounted to 1.07 (time after treatment 24 h) and 1.1 (time after treatment 30 h).

Turning to `O=C1C=C2C=C[C@@H]3C[C@@]2(O1)[C@H]1CCCCN31`, the “PER2::LUC luminescence” value runs as follows: (time after treatment 24 h) 1; (time after treatment 30 h) 0.891.

For `O[C@H]1[C@H]2[C@H](O)CCCN2C[C@H]1O`, the “PER2::LUC luminescence” value by setting is: (time after treatment 24 h) 1.04; (time after treatment 30 h) 1.02.

As for `Oc1noc2c1CCNC2`, the “PER2::LUC luminescence” value reads like this: (time after treatment 24 h) 1.08; (time after treatment 30 h) 0.97.

For `NCCc1cccc(O)c1`, the “PER2::LUC luminescence” value came to 0.979 (time after treatment 24 h) and 0.922 (time after treatment 30 h).

`CC(=O)OC12CC(C)C3(O)C4C=C(C)C(=O)[C@@]4(O)CC(CO)=C[C@H]3C1C2(C)C` (some centres undefined): the “PER2::LUC luminescence” value was determined as 1.15 (time after treatment 24 h) and 0.967 (time after treatment 30 h).

As for `C/C=C(/C)C(=O)O[C@H]1CC[C@@]2(C)[C@@H]3CC[C@H]4[C@]5(O)C[C@H](O)[C@@]6(O)[C@@H](CN7C[C@@H](C)CC[C@H]7[C@@]6(C)O)[C@]5(O)C[C@@]42O[C@]13O`, the “PER2::LUC luminescence” value amounted to 1.1 (time after treatment 24 h) and 1.03 (time after treatment 30 h).

For `CCCC(C)C1(CC)C(=O)NC(=S)NC1=O` (centres undefined), the “PER2::LUC luminescence” value (time after treatment 24 h) was 1.03 and the “PER2::LUC luminescence” value (time after treatment 30 h) came to 0.99.

In the case of `C[C@@H]1O[C@@H](O[C@H]2C[C@@H](O)[C@]3(CO)[C@H]4[C@H](O)C[C@]5(C)[C@@H](C6=CC(=O)OC6)CC[C@]5(O)[C@@H]4CC[C@]3(O)C2)[C@H](O)[C@H](O)[C@H]1O`, the “PER2::LUC luminescence” value reads like this: (time after treatment 24 h) 1.13 and 1.02 and 0.6; (time after treatment 30 h) 0.934 and 0.85 and 0.722.

With `CC(C)C[C@H](NC(=O)[C@H](Cc1ccccc1)NC(=O)CNC(=O)[C@@H](CSC(C)(C)C)NC(=O)[C@@H](N)Cc1ccc(O)cc1)C(=O)N[C@H](C(=O)OC(C)(C)C)[C@@H](C)O`, the “PER2::LUC luminescence” value stood at 0.915 (time after treatment 24 h) and 0.922 (time after treatment 30 h).
